Reference: the supplement of paper PMC12217912
Some of the results follow. The full chains were built here from the parent and the listed change. Inactive controls read about 0.05.

B1: TEV protease; numbered along this chain (parent)
chain: MGESLFKGPRDYNPISSSICHLTNESDGHTTSLYGIGFGPFIITNKHLFRRNNGTLVVQSLHGVFKVKDTTTLQQHLVDGRDMIIIRMPKDFPPFPQKLKFREPQREERICLVTTNFQTKSMSSMVSDTSCTFPSGDGIFWKHWIQTKDGQCGSPLVSTRDGFIVGIHSASNFTNTNNYFTSVPKNFMELLTNQEAQQWVSGWRLNADSVLWGGHKVFMVKPEEPFQPVKEATQL

Variants of: B1
Test: raw area under fraction-flipped curve 0-4 h after induction (AUC4h, not background-subtracted), DNA-recorder readout of cleavage of the substrate (dimensionless); higher = more cleavage of the substrate by the protease variant
Settings: temperature: 34 °C; time window: 0-4 h after rhamnose induction
Procedure: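 In vivo DNA recorder in E. coli TOP10(DE3) ΔrhaA at 34 °C. Each TEVp single-site mutant (parent TEVp 0) is paired with a single-site variant of the 7-mer TEVs (canonical ENLYFQ|S). The substrate sits between flexible linkers in a Bxb1-sfGFP-TEVs-SsrA fusion, so cleavage stabilises Bxb1 and speeds flipping of a recombination array, read by NGS. The value is the raw area under the fraction-flipped curve over 0-4 h after rhamnose induction (AUC4h), with ≥20 reads per time point. It is not background-subtracted; inactive controls average about 0.047.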
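Further: Bxb1 expression induced with 0.2% (w/v) L-rhamnose at OD600 near 0.5, cultures sampled hourly, flipped fraction per protease–substrate barcode pair counted by paired-end Illumina sequencing.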

Variant	area with substrate ECLYFQS	area with substrate EELYFQS	area with substrate EGLYFQS	area with substrate ELLYFQS	area with substrate EMLYFQS	area with substrate EPLYFQS	area with substrate ERLYFQS	area with substrate ESLYFQS	area with substrate ETLYFQS	area with substrate EVLYFQS	area with substrate EWLYFQS	area with substrate EYLYFQS	area with substrate EDLYFQS	area with substrate EHLYFQS	area with substrate EILYFQS	area with substrate EKLYFQS	area with substrate EQLYFQS	area with substrate EFLYFQS
MGESLFKGPRDYNPISSSICHLTNESDGHTTSLYGIGFGPFIITNKHLFRRNTGTLVVQSLHGVFKVKDTTTLQQHLVDGRDMIIIRMPKDFPPFPQKLKFREPQREERICLVTTNFQTKSMSSMVSDTSCTFPSGDGIFWKHWIQTKDGQCGSPLVSTRDGFIVGIHSASNFTNTNNYFTSVPKNFMELLTNQEAQQWVSGWRLNADSVLWGGHKVFMVKPEEPFQPVKEATQL [N53T]	0.0658	0.0882	0.0739	0.0601	0.0939	0.104	0.085	0.0843	0.099	0.0716	0.081	0.0801						
MGESLFKGPRDYNPISSSICHLTNESDGHTTSLYGIGFGPFIITNKHLFRRNNYTLVVQSLHGVFKVKDTTTLQQHLVDGRDMIIIRMPKDFPPFPQKLKFREPQREERICLVTTNFQTKSMSSMVSDTSCTFPSGDGIFWKHWIQTKDGQCGSPLVSTRDGFIVGIHSASNFTNTNNYFTSVPKNFMELLTNQEAQQWVSGWRLNADSVLWGGHKVFMVKPEEPFQPVKEATQL [G54Y]	0.0663		0.0671				0.0871	0.067	0.205			0.0721	0.0432	0.102	0.0616	0.0429	0.0854	
MGESLFKGPRDYNPISSSICHLTNESDGHTTSLYGIGFGPFIITNKHLFRRNNGTLVVQQLHGVFKVKDTTTLQQHLVDGRDMIIIRMPKDFPPFPQKLKFREPQREERICLVTTNFQTKSMSSMVSDTSCTFPSGDGIFWKHWIQTKDGQCGSPLVSTRDGFIVGIHSASNFTNTNNYFTSVPKNFMELLTNQEAQQWVSGWRLNADSVLWGGHKVFMVKPEEPFQPVKEATQL [S60Q]	0.0498	0.128			0.0917	0.109	0.0467	0.0914		0.0735	0.0484		0.0955	0.106		0.084		
MGESLFKGPRDYNPISSSICHLTNESDGHTTSLYGIGFGPFIITNKHLFRRNNGTLVVQSDHGVFKVKDTTTLQQHLVDGRDMIIIRMPKDFPPFPQKLKFREPQREERICLVTTNFQTKSMSSMVSDTSCTFPSGDGIFWKHWIQTKDGQCGSPLVSTRDGFIVGIHSASNFTNTNNYFTSVPKNFMELLTNQEAQQWVSGWRLNADSVLWGGHKVFMVKPEEPFQPVKEATQL [L61D]	0.118	0.0593			0.0972	0.107	0.116	0.104	0.112	0.0892	0.0865		0.139	0.0921	0.136	0.126	0.139	
MGESLFKGPRDYNPISSSICHLTNESDGHTTSLYGIGFGPFIITNKHLFRRNNGTLVVQSLHGVFVVKDTTTLQQHLVDGRDMIIIRMPKDFPPFPQKLKFREPQREERICLVTTNFQTKSMSSMVSDTSCTFPSGDGIFWKHWIQTKDGQCGSPLVSTRDGFIVGIHSASNFTNTNNYFTSVPKNFMELLTNQEAQQWVSGWRLNADSVLWGGHKVFMVKPEEPFQPVKEATQL [K66V]	0.11			0.12		0.143		0.188		0.145			0.133		0.0987	0.104		0.113
MGESLFKGPRDYNPISSSICHLTNESDGHTTSLYGIGFGPFIITNKHLFRRNNGTLVVQSLHGVFKVKDTTTLFQHLVDGRDMIIIRMPKDFPPFPQKLKFREPQREERICLVTTNFQTKSMSSMVSDTSCTFPSGDGIFWKHWIQTKDGQCGSPLVSTRDGFIVGIHSASNFTNTNNYFTSVPKNFMELLTNQEAQQWVSGWRLNADSVLWGGHKVFMVKPEEPFQPVKEATQL [Q74F]	0.0873	0.113			0.133					0.0896	0.0863			0.0899	0.0764	0.106		
MGESLFKGPRDYNPISSSICHLTNESDGHTTSLYGIGFGPFIITNKHLFRRNNGTLVVQSLHGVFKVKDTTTLQQALVDGRDMIIIRMPKDFPPFPQKLKFREPQREERICLVTTNFQTKSMSSMVSDTSCTFPSGDGIFWKHWIQTKDGQCGSPLVSTRDGFIVGIHSASNFTNTNNYFTSVPKNFMELLTNQEAQQWVSGWRLNADSVLWGGHKVFMVKPEEPFQPVKEATQL [H76A]	0.104	0.0928	0.0849		0.104		0.0908	0.0765	0.116	0.0881	0.0844	0.0707		0.0935	0.071		0.0973	0.0628
MGESLFKGPRDYNPISSSICHLTNESDGHTTSLYGIGFGPFIITNKHLFRRNNGTLVVQSLHGVFKVKDTTTLQQQLVDGRDMIIIRMPKDFPPFPQKLKFREPQREERICLVTTNFQTKSMSSMVSDTSCTFPSGDGIFWKHWIQTKDGQCGSPLVSTRDGFIVGIHSASNFTNTNNYFTSVPKNFMELLTNQEAQQWVSGWRLNADSVLWGGHKVFMVKPEEPFQPVKEATQL [H76Q]	0.106				0.102	0.108	0.1	0.0903				0.125	0.0962			0.138		0.0806
MGESLFKGPRDYNPISSSICHLTNESDGHTTSLYGIGFGPFIITNKHLFRRNNGTLVVQSLHGVFKVKDTTTLQQHLVIGRDMIIIRMPKDFPPFPQKLKFREPQREERICLVTTNFQTKSMSSMVSDTSCTFPSGDGIFWKHWIQTKDGQCGSPLVSTRDGFIVGIHSASNFTNTNNYFTSVPKNFMELLTNQEAQQWVSGWRLNADSVLWGGHKVFMVKPEEPFQPVKEATQL [D79I]	0.0659		0.0743					0.0702						0.107	0.0779		0.0996	
MGESLFKGPRDYNPISSSICHLTNESDGHTTSLYGIGFGPFIITNKHLFRRNNGTLVVQSLHGVFKVKDTTTLQQHLVDGLDMIIIRMPKDFPPFPQKLKFREPQREERICLVTTNFQTKSMSSMVSDTSCTFPSGDGIFWKHWIQTKDGQCGSPLVSTRDGFIVGIHSASNFTNTNNYFTSVPKNFMELLTNQEAQQWVSGWRLNADSVLWGGHKVFMVKPEEPFQPVKEATQL [R81L]	0.088			0.0828	0.0843	0.16	0.119	0.0841					0.129	0.0817	0.1	0.0943		
MGESLFKGPRDYNPISSSICHLTNESDGHTTSLYGIGFGPFIITNKHLFRRNNGTLVVQSLHGVFKVKDTTTLQQHLVDGRWMIIIRMPKDFPPFPQKLKFREPQREERICLVTTNFQTKSMSSMVSDTSCTFPSGDGIFWKHWIQTKDGQCGSPLVSTRDGFIVGIHSASNFTNTNNYFTSVPKNFMELLTNQEAQQWVSGWRLNADSVLWGGHKVFMVKPEEPFQPVKEATQL [D82W]	0.0545		0.0559		0.052	0.0651				0.0517		0.0497	0.0563	0.0557	0.0614	0.0379	0.0517	0.0439
MGESLFKGPRDYNPISSSICHLTNESDGHTTSLYGIGFGPFIITNKHLFRRNNGTLVVQSLHGVFKVKDTTTLQQHLVDGRDMCIIRMPKDFPPFPQKLKFREPQREERICLVTTNFQTKSMSSMVSDTSCTFPSGDGIFWKHWIQTKDGQCGSPLVSTRDGFIVGIHSASNFTNTNNYFTSVPKNFMELLTNQEAQQWVSGWRLNADSVLWGGHKVFMVKPEEPFQPVKEATQL [I84C]	0.0905	0.142			0.0906	0.0947	0.098	0.0859			0.114				0.117			
MGESLFKGPRDYNPISSSICHLTNESDGHTTSLYGIGFGPFIITNKHLFRRNNGTLVVQSLHGVFKVKDTTTLQQHLVDGRDMIDIRMPKDFPPFPQKLKFREPQREERICLVTTNFQTKSMSSMVSDTSCTFPSGDGIFWKHWIQTKDGQCGSPLVSTRDGFIVGIHSASNFTNTNNYFTSVPKNFMELLTNQEAQQWVSGWRLNADSVLWGGHKVFMVKPEEPFQPVKEATQL [I85D]	0.0465					0.0316		0.0464		0.0483	0.0682		0.0419		0.0453	0.0424	0.0311	
MGESLFKGPRDYNPISSSICHLTNESDGHTTSLYGIGFGPFIITNKHLFRRNNGTLVVQSLHGVFKVKDTTTLQQHLVDGRDMIMIRMPKDFPPFPQKLKFREPQREERICLVTTNFQTKSMSSMVSDTSCTFPSGDGIFWKHWIQTKDGQCGSPLVSTRDGFIVGIHSASNFTNTNNYFTSVPKNFMELLTNQEAQQWVSGWRLNADSVLWGGHKVFMVKPEEPFQPVKEATQL [I85M]	0.0834			0.0889	0.14	0.135		0.0954		0.0845		0.0987	0.123	0.13	0.0983	0.0976	0.122	
MGESLFKGPRDYNPISSSICHLTNESDGHTTSLYGIGFGPFIITNKHLFRRNNGTLVVQSLHGVFKVKDTTTLQQHLVDGRDMIVIRMPKDFPPFPQKLKFREPQREERICLVTTNFQTKSMSSMVSDTSCTFPSGDGIFWKHWIQTKDGQCGSPLVSTRDGFIVGIHSASNFTNTNNYFTSVPKNFMELLTNQEAQQWVSGWRLNADSVLWGGHKVFMVKPEEPFQPVKEATQL [I85V]	0.0897		0.0994	0.0719	0.0978	0.138	0.0926	0.1	0.105	0.0888			0.0881		0.0796	0.105	0.072	0.144
MGESLFKGPRDYNPISSSICHLTNESDGHTTSLYGIGFGPFIITNKHLFRRNNGTLVVQSLHGVFKVKDTTTLQQHLVDGRDMIIERMPKDFPPFPQKLKFREPQREERICLVTTNFQTKSMSSMVSDTSCTFPSGDGIFWKHWIQTKDGQCGSPLVSTRDGFIVGIHSASNFTNTNNYFTSVPKNFMELLTNQEAQQWVSGWRLNADSVLWGGHKVFMVKPEEPFQPVKEATQL [I86E]	0.0373	0.0627	0.0363		0.0417			0.0443		0.042	0.0034	0.048	0.0274	0.0339	0.022	0.037	0.0408	
MGESLFKGPRDYNPISSSICHLTNESDGHTTSLYGIGFGPFIITNKHLFRRNNGTLVVQSLHGVFKVKDTTTLQQHLVDGRDMIIIRIPKDFPPFPQKLKFREPQREERICLVTTNFQTKSMSSMVSDTSCTFPSGDGIFWKHWIQTKDGQCGSPLVSTRDGFIVGIHSASNFTNTNNYFTSVPKNFMELLTNQEAQQWVSGWRLNADSVLWGGHKVFMVKPEEPFQPVKEATQL [M88I]	0.101	0.129			0.1			0.126	0.101	0.103	0.0703	0.0987		0.0972		0.0938	0.127	
MGESLFKGPRDYNPISSSICHLTNESDGHTTSLYGIGFGPFIITNKHLFRRNNGTLVVQSLHGVFKVKDTTTLQQHLVDGRDMIIIRMPKDAPPFPQKLKFREPQREERICLVTTNFQTKSMSSMVSDTSCTFPSGDGIFWKHWIQTKDGQCGSPLVSTRDGFIVGIHSASNFTNTNNYFTSVPKNFMELLTNQEAQQWVSGWRLNADSVLWGGHKVFMVKPEEPFQPVKEATQL [F92A]	0.0965	0.102	0.0786	0.0735	0.101			0.0676	0.0902				0.143		0.0908	0.0584	0.118	
MGESLFKGPRDYNPISSSICHLTNESDGHTTSLYGIGFGPFIITNKHLFRRNNGTLVVQSLHGVFKVKDTTTLQQHLVDGRDMIIIRMPKDFPPGPQKLKFREPQREERICLVTTNFQTKSMSSMVSDTSCTFPSGDGIFWKHWIQTKDGQCGSPLVSTRDGFIVGIHSASNFTNTNNYFTSVPKNFMELLTNQEAQQWVSGWRLNADSVLWGGHKVFMVKPEEPFQPVKEATQL [F95G]	0.104	0.0689			0.0771	0.073	0.0794	0.0692		0.0565		0.0838	0.0887	0.0545	0.0627		0.0659	
